According to the supplement of paper PMC11417369:
± gives the standard deviation of the averaged measurements. The list shows a part of the results.

test system: PfAP2-I AP2 domain 3 (GST-tagged); assay: gcPBM binding intensity (ln(normalized median fluorescence intensity)); higher = stronger DNA binding
How it was run: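 Each value is the highest Masliner-normalised natural-log median intensity across replicate spots of either orientation of a probe. The probes were primer-extended double-stranded 36-bp intergenic genomic sequences on an Agilent 4 × 180k array, alongside negative controls, exposed for 1 h to GST-tagged P. falciparum DNA-binding domains expressed in E. coli. Bound protein was picked up with Alexa488 anti-GST antibody and scanned at 488 nm.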

Point of comparison: “AATATATATAATTATAGTACAGAAAATTAAAAAAGA [XGTACX_site2943]”, “gcPBM binding intensity (ln)” value 8.07 ± 0.61. Against it:
- CAATTTCTCTTAATTTGTACATATATGTTATACAAA [XGTACX_site3231] — within error, 7.74 ± 0.5
- TTATATATTTCTACTCATATTACAATGTGAGAAATA [CACACA_negctrl_site873] — within error, 7.43 ± 0.55
- TAGATATATAATTTTTGTACGTAGTCGAATCTCAGA [XGTACX_site765] — within error, 7.63 ± 0.5
- CTCAACAAAATATGAGTGCATTGTTATTACATATAT — higher, 10.2 ± 0.27
- AACATTAAAAGGGATACACACATATAAATAAATAAT [CACACA_site489] — within error, 7.79 ± 0.81
- AAATATATATAAAAGTGTACATTTGTTATAATCAGT [XGTACX_site4822] — within error, 8.06 ± 0.55
- CCAACTAAAAAGGAATGTACATAGTTATGGTTGGAA [XGTACX_site8762] — within error, 8 ± 0.74
- TAGATTTTTTAATGTTGTACAAATATACGATATATA [XGTACX_site3258] — within error, 7.68 ± 0.26
- TTGTTTCTCTTTAAAAGTACAAAAATGGTTACATAT [XGTACX_site3109] — within error, 8.02 ± 0.48
- ACATCAAGCAGACACACACACACACGCACACGCACA [CACACA_site6309] — within error, 8.37 ± 0.49
- ACTATTCATGCATATACACACACATATATATATATT [CACACA_site9309] — within error, 8.8 ± 0.53
- AACAATAAAAATAATTGTACAAGTTTAAAAAAAATT [XGTACX_site1987] — within error, 7.92 ± 0.49
- TCTTTAAATTTCTCAACACACAGTTATAAAAAATAA [CACACA_site2856] — within error, 7.78 ± 0.3
- TATATCTTATTTAACACACACAAAGAAAATAGAAAA [CACACA_site3732] — within error, 7.95 ± 0.62
- CATTTAAGACAAATTACACACGTATGCCAAATATAT [CACACA_site431] — within error, 8 ± 0.63
- ATATTTTTTTTTGTTAGTACTCATATTTGTAGTTTT [XGTACX_site7280] — within error, 8.01 ± 0.67
- TATATATATTAGTGTGCACACTTTTTATTTTTATCC [CACACA_site8506] — higher, 9.33 ± 0.4
- ATATATTTATAATAGGTGCATATGTTTTATTTTTCC [GTGCAC_site9849] — higher, 10.1 ± 0.5
- TGTTCTATTCTATTATTATTTACAAATTATAAATAA [GTGCAC_negctrl_site232] — within error, 7.89 ± 0.37
- AAAGAATTATATAAGGTGCACGAATGTTTCTTTAAT — higher, 10.96 ± 0.035
- ATATGTGTGTGTATTTGTACCCAATTTTTATATATA [XGTACX_site4948] — within error, 8.29 ± 0.43
- AAAAAAAAAAAAAAAAAAAAAATACATATATATATA [CACACA_negctrl_site290] — higher, 9.48 ± 0.26
- AGATATGTTTTTAATTGTACATAAATACACAAATAT [XGTACX_site5981] — within error, 7.87 ± 0.37
- TGTAATAAATAGTACACACACACATATATATATATT [CACACA_site1388] — within error, 8.01 ± 0.48
- TATAAATATATTTATACACACATTAGTGTATACATG [CACACA_site7397] — within error, 7.85 ± 0.52
- AGGTGAAAAATATATAATAATGTAACAAAAAAAAAT [XGTACX_negctrl_site394] — within error, 7.78 ± 0.75
- TCGTGTTAAATTTTTACACACAAACTTGCAATAATT [CACACA_site3824] — within error, 9.11 ± 0.61
- AACTATAACTAAAAAAATCACATAAAATATTTTATT [TGCATGCA_negctrl_site363] — within error, 7.54 ± 0.49
- AAAATATAAAATAATGCACACATAAACAAAAAATCA [CACACA_site8382] — higher, 10.8 ± 0.96
- TAAAGTTAAAAATTATGTACATATATATTGTATATT [XGTACX_site5528] — within error, 7.52 ± 0.45
- GATAAAATAGGACCATATTCTTTAAAACGATAAAAT [XGTACX_negctrl_site405] — within error, 7.76 ± 0.48
- ATATATATATATTTATGTACATATACATAATGTATA [XGTACX_site6387] — higher, 8.88 ± 0.18
- TAAGAAGTATTTTCCTGTACATATTTTATATGTATG [XGTACX_site4658] — within error, 7.39 ± 0.26
- TTATTTTATATATCACGTACATAGTTGTCTTCTTTT [XGTACX_site2906] — within error, 7.8 ± 0.59
- ATGAATCCTTAATATGAACACACAAATATATTACAC [CACACA_site7943] — within error, 8.06 ± 0.45
- TCCTTATTTATATAATGTACTTTTTTTTTTCATTTT [XGTACX_site4275] — within error, 7.85 ± 0.58
- TTTTTTATTTATCCTATATATTACTAAATGAAGAAC [GTGCAC_negctrl_site333] — within error, 7.92 ± 0.38
- TTATTTCAAAGTAAATCAGTAAATATTTGTTTTCTT [CACACA_negctrl_site1572] — within error, 7.28 ± 0.46
- TACAAGTATAAATAAGCACACATGTGGATATGTACA [CACACA_site4229] — within error, 8.45 ± 0.52
- ATAAATAAATACATATGTACATATATATATATATAT [XGTACX_site7145] — higher, 9.22 ± 0.44
- ATATATATATTAAGGGGTACGTAAAAAATTGGGAAG [XGTACX_site7322] — higher, 8.91 ± 0.11
- TCAGTTAATGTATATGTACACACGGGGTGTATATAT [CACACA_site9103] — within error, 8.12 ± 0.46
- AAATTATATCCCCTTTGTACTTACAGATCTTTATAC [XGTACX_site8163] — within error, 7.97 ± 0.67
- TAAAAAAAAATAAATACATGCATATAATACATTATA [TGCATGCA_site518] — within error, 7.39 ± 0.42
- TGAACATGTTAAAATAAACACACAGCTAAGGTTTTT [CACACA_site7934] — within error, 7.34 ± 0.72
- TATCATATAAATACATGTACATATTTGGAAAATAAT [XGTACX_site5373] — within error, 7.79 ± 0.56
- ATATATATATTAACAATACACACGTGTATACCTTAT [CACACA_site2217] — higher, 8.94 ± 0.11
- ATGTTTTGTAAAATGATTAAATATTAAGATTCAATA [CACACA_negctrl_site1743] — within error, 7.44 ± 0.42
- TAGTAAATAACAAAAGGAAAAATTAATGAGGCAAAA [TGCATGCA_negctrl_site526] — within error, 7.81 ± 0.88
- CATATACACGAACACACACACATATATATATATATA [CACACA_site4437] — higher, 9.68 ± 0.54
- CATCATAGCATTCCTCGTACAAATATAAACATATCA [XGTACX_site2711] — within error, 7.92 ± 0.57
- CTTAGAGTATTTAAATGTACACGTTTGTATATGTAT [XGTACX_site1767] — within error, 8.09 ± 0.52
- TTTATAAAATTATTTGCATGTAACAATTATAAATTG [TGCATGCA_site1026] — within error, 7.43 ± 0.59
- TTTTTTTTTCTTTCTCTTTAAATATTAATTAAAAAA [GTGCAC_negctrl_site90] — within error, 7.68 ± 0.6
- AATGTGAAATATAAATGTACATAAATATATATATAT [XGTACX_site8710] — higher, 9.21 ± 0.3
- AAAATATAAATATATTGTACTGTTATATAATAAAAT [XGTACX_site2132] — within error, 7.56 ± 0.41
- TAACTATCATGTATTACACACAATATTTATTATAGA [CACACA_site7301] — within error, 7.69 ± 0.49
- TTCTTTTTTCTTTATGGTACGTGTAATATATATCAA [XGTACX_site7960] — within error, 8.26 ± 0.62
- TACATATTTTTTATGTGTACATATTTTTTATGTGTG [XGTACX_site444] — within error, 7.61 ± 0.057
- CCCAATAATTAAACAACACACATATATATATGTAAT [CACACA_site3084] — within error, 7.74 ± 0.67
- ATAAAATACAGATAAACACACATATAAACACCCATA [CACACA_site5381] — within error, 8.21 ± 0.14
- CTTTATTTTTTATACACACACAATATGTATAAATAT [CACACA_site7638] — within error, 8.14 ± 0.45
- TATAAATAATGTTAAACACACATACCGATATATAAC [CACACA_site7306] — within error, 7.77 ± 0.58
- AAGCATTTCCATGGTGGTACTATACAAATAATAATT [XGTACX_site6193] — within error, 7.76 ± 0.64
- AAAAAAATTTGTATCACACACGTATTATAAAAAAAT [CACACA_site4182] — within error, 7.72 ± 0.66
- TATTAAACTAAATGTAGTACATACACAAACGTAATC [XGTACX_site4905] — within error, 7.88 ± 0.65
- TATTCGTGCAATAATGGTACACTTATAAATTATTCA [XGTACX_site1430] — higher, 10.7 ± 0.71
- TCTCTCTTATAAAATACACACGAACAATCATATTAT [CACACA_site8065] — within error, 7.69 ± 0.54
- ATTTTTTTTTTTAAATGTACATAATATATATATAAT [XGTACX_site2686] — within error, 7.79 ± 0.43
- CGAACATTATAAATGTCATTTTTTCCAACTTGATCT [GTGCAC_negctrl_site501] — within error, 7.28 ± 0.61
- GTACAAAAATAAATTGCACACATTTTAATAAAAAAA [CACACA_site2130] — higher, 8.82 ± 0.12
- AGATTTAAATATCATACACACTTTATCTATAATACA [CACACA_site6581] — within error, 7.66 ± 0.73
- TATATTTATTTATATACACACATATTTATAAATATA [CACACA_site7047] — within error, 7.74 ± 0.5
- CAAAATTGACATGACGCACACAAGTGTAGATATTTT [CACACA_site1250] — within error, 7.97 ± 0.67
- TAGTTGTTTATAACACGTTGACAGAAATGTTATGTA [GTGCAC_negctrl_site624] — within error, 7.85 ± 0.72
- TATGTGGCACAAAAGGGTACATATAATTTATACAGG [XGTACX_site5499] — within error, 8.78 ± 0.28
- TGTGTACCGATATTAAGTTTAACGTTATAAAAATAT [CACACA_negctrl_site1547] — within error, 7.89 ± 0.53
- AAACAGAATGCATATACACACATACAAAAAAGTGCA [CACACA_site6591] — within error, 9.05 ± 0.88
- AAAGGACAAAAAAATGCATGCCGTTAAATTATGTAC [TGCATGCA_site512] — within error, 7.78 ± 0.83
- TTTCTAAACCGGTACAGTACATATAAAAATAGAATA [XGTACX_site6662] — within error, 7.99 ± 0.42
- AGTGTATTTTTATGTTGTACATGTAATATTTTTGAT [XGTACX_site541] — within error, 7.87 ± 0.43
- CTTTTTTTTTAAATATCACACACATATAATATATTC [CACACA_site9222] — within error, 7.54 ± 0.61
- TAATTCATCATATGCACACACAATACCAAAATGTGC [CACACA_site191] — higher, 9.04 ± 0.18
- TACAGATATTCATATAAACACACATACAAATTATGT [CACACA_site7929] — within error, 7.58 ± 0.69
- TATATAATATATTAATGTACGTTATATGTATTCCTT [XGTACX_site6140] — within error, 7.78 ± 0.47
- TTTCCCTACCAAAAATGTACTTATAAGCGTTTTTAT [XGTACX_site739] — within error, 7.88 ± 0.63
- AAAAAAAAAAAACACACACACACACTAATACATACA [CACACA_site8135] — within error, 7.92 ± 0.45
